In the supplement of paper PMC3334620:
The full ranking holds about 33,000 sequences; the median of “E-score (-0.5 to 0.5)” is about -0.012, and the highest 2% start at about 0.29. The list shows a part of the results.

What follows are sequences tested against T1, Ybr033w (UniProt P38073) (assay: PBM E-score (8-mer binding enrichment) (E-score (-0.5 to 0.5)); higher = stronger / more preferred TF binding; most listed sequences are background and not binding sites). Conditions: protein concentration: 200 nM; construct: GST-full length.
T1 sequence: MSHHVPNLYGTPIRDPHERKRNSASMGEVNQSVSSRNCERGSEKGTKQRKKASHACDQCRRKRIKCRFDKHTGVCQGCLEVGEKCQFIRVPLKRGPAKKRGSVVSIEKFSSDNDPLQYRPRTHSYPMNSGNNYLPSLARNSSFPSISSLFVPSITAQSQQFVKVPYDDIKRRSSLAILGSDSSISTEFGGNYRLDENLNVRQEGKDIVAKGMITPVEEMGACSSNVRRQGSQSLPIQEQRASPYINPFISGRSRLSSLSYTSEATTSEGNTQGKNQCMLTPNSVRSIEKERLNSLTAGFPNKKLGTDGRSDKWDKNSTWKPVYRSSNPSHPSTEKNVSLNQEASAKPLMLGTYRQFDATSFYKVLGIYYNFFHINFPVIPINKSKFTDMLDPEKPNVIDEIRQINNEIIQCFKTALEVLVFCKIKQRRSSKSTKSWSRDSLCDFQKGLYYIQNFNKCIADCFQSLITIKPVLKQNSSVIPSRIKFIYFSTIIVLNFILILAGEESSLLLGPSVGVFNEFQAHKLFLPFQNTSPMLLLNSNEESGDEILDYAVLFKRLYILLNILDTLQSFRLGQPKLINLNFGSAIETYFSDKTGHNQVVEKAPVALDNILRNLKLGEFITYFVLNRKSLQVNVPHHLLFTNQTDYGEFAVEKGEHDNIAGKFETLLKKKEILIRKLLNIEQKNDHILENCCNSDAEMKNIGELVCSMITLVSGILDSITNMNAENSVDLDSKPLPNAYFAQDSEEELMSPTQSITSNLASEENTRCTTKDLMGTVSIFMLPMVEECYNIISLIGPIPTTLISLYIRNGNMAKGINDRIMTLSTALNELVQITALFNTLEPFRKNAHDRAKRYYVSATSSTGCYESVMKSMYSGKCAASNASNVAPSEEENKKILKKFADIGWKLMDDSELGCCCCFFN
Protocol: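 Universal 'all 10-mer' protein binding microarrays (Agilent AMADID 015681) probed with GST-tagged S. cerevisiae TFs (full-length or DBD) made by in vitro transcription/translation (PURExpress), about 100-200 nM. Bound TF was detected with fluorescent anti-GST. Each ungapped 8-mer (which stands for itself and its reverse complement) is scored by the PBM enrichment score (E-score), a modified Wilcoxon-Mann-Whitney statistic from -0.5 to +0.5, computed with the Universal PBM Analysis Suite. Scale: above 0.35 generally sequence-specific binding.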

Compared with ACAGCTTA, ACTATACA is higher in “PBM E-score” value: 0.0322 for the first, 0.164 for the second.

Compared with TAATATGA, CGAGGGTA is lower in “PBM E-score” value: 0.284 for the first, -0.0645 for the second.

Going from AGTAGTTA to GTAAAACA, the “PBM E-score” value rises from 0.0431 to 0.0774.

First: CTCGAGAA
Second: ATGCTAGG
The “PBM E-score” value of the first is higher: -0.0495 for the first, -0.128 for the second.

Compared with CGCTATGA, AGTCGGAT is higher in “PBM E-score” value: 0.0424 for the first, 0.173 for the second.

Going from CGGCATCA to GCTGGTAA, the “PBM E-score” value rises from -0.0412 to 0.0232.

Going from CAATGAGC to AAGTCATT, the “PBM E-score” value rises from -0.0648 to 0.0867.

Compared with AGAGGTAG, TATAAAAA is higher in “PBM E-score” value: -0.0839 for the first, 0.253 for the second.

Going from ACCGCTAC to AGTCGCCC, the “PBM E-score” value falls from -0.0889 to -0.181.

Compared with CGAGCCCA, CGGCGTCC is higher in “PBM E-score” value: -0.0979 for the first, 0.0115 for the second.

Compared with AAACTCAT, AGCCACAC is lower in “PBM E-score” value: 0.274 for the first, -0.0814 for the second.

Compared with CTGATACA, CGACTACG is lower in “PBM E-score” value: 0.0296 for the first, -0.119 for the second.

Going from CGCAGATC to CGAGTCAA, the “PBM E-score” value rises from -0.207 to -0.0691.

First: TAAACTCA
Second: CGGCGCCG
The “PBM E-score” value of the first is higher: 0.147 for the first, -0.101 for the second.

Compared with AAGCCTAA, ATGCATGA is higher in “PBM E-score” value: 0.0278 for the first, 0.149 for the second.

Compared with CTAGACTC, CAATTGTG is higher in “PBM E-score” value: -0.308 for the first, 0.0486 for the second.

First: AAGTCTCC
Second: CATGAGCA
The “PBM E-score” value of the first is lower: -0.0449 for the first, -0.0438 for the second.

Going from ATACCGTC to CGAAACAG, the “PBM E-score” value rises from 0.0674 to 0.0722.

Going from TGCGTGAA to AAGGGGTA, the “PBM E-score” value falls from 0.0985 to -0.299.

Going from AACACCGA to GCTACCAC, the “PBM E-score” value falls from -0.00424 to -0.0343.

First: CAGCTGTC
Second: AGGTGCAT
The “PBM E-score” value of the first is higher: 0.0183 for the first, -0.0746 for the second.

First: AGACATGC
Second: AACTCTCC
The “PBM E-score” value of the first is higher: -0.0452 for the first, -0.172 for the second.

Compared with AGACCGTG, ACGTGAGC is lower in “PBM E-score” value: -0.111 for the first, -0.222 for the second.

First: AATCTACT
Second: GCATCGAA
The “PBM E-score” value of the first is higher: 0.166 for the first, -0.077 for the second.

Compared with GCATCACA, GTCTTGCA is lower in “PBM E-score” value: 0.215 for the first, 0.0132 for the second.

Compared with AGCTCGCC, ATTCGTGG is higher in “PBM E-score” value: -0.197 for the first, 0.0347 for the second.

Going from CTGCGGGA to GCCTACAC, the “PBM E-score” value rises from -0.179 to -0.134.

Going from GTCTGACA to ACGCGTCA, the “PBM E-score” value rises from 0.00461 to 0.0112.

First: GAATCCGC
Second: ACCCAGGG
The “PBM E-score” value of the first is higher: -0.13 for the first, -0.287 for the second.

Going from TAACATCA to CCGACCGC, the “PBM E-score” value falls from 0.22 to -0.197.

Compared with TAGGACGA, ATCTCCGA is higher in “PBM E-score” value: -0.0514 for the first, 0.0131 for the second.

First: CGCACAAC
Second: TCTTCACA
The “PBM E-score” value of the first is lower: -0.145 for the first, 0.103 for the second.

Going from ACTGAGTC to GTGATATA, the “PBM E-score” value rises from -0.0352 to 0.0803.

Going from CACCTAGC to ATGAAGCC, the “PBM E-score” value rises from -0.236 to 0.199.

Compared with AGGAATTG, GGCCGCGA is lower in “PBM E-score” value: 0.0984 for the first, -0.247 for the second.

Going from CAGCTGAA to CCGAGTAG, the “PBM E-score” value rises from -0.14 to 0.157.

Compared with ATCCCGGG, GATGCTGA is lower in “PBM E-score” value: 0.0706 for the first, -0.17 for the second.

First: ACGGAAAG
Second: GACGCTAC
The “PBM E-score” value of the first is lower: 0.0247 for the first, 0.131 for the second.

First: ACTAACCT
Second: TGTCACAA
The “PBM E-score” value of the first is lower: 0.0958 for the first, 0.213 for the second.

Going from CTATACCC to CTTACCAA, the “PBM E-score” value rises from -0.0499 to 0.239.

Going from GCCTGTCC to CCAACACG, the “PBM E-score” value rises from -0.193 to 0.0872.

First: GTACCGCA
Second: AATGAATA
The “PBM E-score” value of the first is lower: -0.0826 for the first, 0.194 for the second.

First: CGGACGAG
Second: GGCCCCCA
The “PBM E-score” value of the first is higher: -0.105 for the first, -0.361 for the second.
